Results published in a collection of fitness landscapes (doi:10.1016/j.celrep.2020.107928).
Over roughly 81,000 sequences, “one-hybrid fitness for binding parS DNA” has its median near -0.17; the highest 2% begin near 0.51. This is one part of the list.

B1: Caulobacter ParB omega fusion; a variant is named by its letters at X, in order, B8GW30 (parent)
chain: MESVVVGEPGMSEGRRGLGRGLSALLGEVDAAPAQAPGEQLGGSREAPIEILQRNPDQPRRTFREEDLEDLSNSIREKGVLQPILVRPSPDTAGEYQIVAGERAWRAAQRAGLKTVPIMVRELDDLAVLEIGIIENVQRADLNVLEEALSYKVLMEKFERTQENIAQTIGKSXSHVANXMRLLXLPDEVQSYLVSGELTAXHARAIAAAADPVALAKQIIEGGLSVRETEALARKAPNLSAGKSKGGRPPRVKDTDTQALESDLSSVLGLDVSIDHRGSTGTLTITYATLEQLDDLCNRLTRGI

Variants of: B1
Assay: one-hybrid fitness for binding parS DNA (scaled: cognate 1, non-cognate 0); higher = stronger binding
Conditions: with parS DNA site
Outline: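 Fitness here means the log change in variant-to-wild-type read ratio between plasmids sequenced before and after selection. That scale was set so cognate equals 1 and non-cognate equals 0. The selection was a bacterial one-hybrid screen of Caulobacter ParB libraries, four specificity codons randomised, in E. coli USO carrying a HIS3 reporter with the site 19 bp from the promoter, grown 48 hours at 37°C on M9-minus-histidine with 0.1 mM IPTG and 5 mM 3-AT.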

Row | Variant | one-hybrid fitness for binding parS DNA
1 | VFIC | ≤ 0.2
2 | RMDG | 0.917
3 | TQNT | ≤ 0.2
4 | RPDD | ≤ 0.2
5 | VVLS | ≤ 0.2
6 | AMIR | ≤ 0.2
7 | VNFE | ≤ 0.2
8 | AWTV | ≤ 0.2
9 | KQTT | ≤ 0.2
10 | HPFV | ≤ 0.2
11 | WDDY | ≤ 0.2
12 | WKRL | ≤ 0.2
13 | ALGM | ≤ 0.2
14 | QVGL | ≤ 0.2
15 | DFES | ≤ 0.2
16 | QNTN | ≤ 0.2
17 | WCVT | ≤ 0.2
18 | PTAK | ≤ 0.2
19 | WSWF | ≤ 0.2
20 | THES | ≤ 0.2
21 | ADGT | ≤ 0.2
22 | QLCP | ≤ 0.2
23 | NSTL | ≤ 0.2
24 | QQTL | ≤ 0.2
25 | SEKV | ≤ 0.2

Row | Variant | one-hybrid fitness for binding parS DNA
26 | YNAR | ≤ 0.2
27 | HRTH | ≤ 0.2
28 | RCNP | ≤ 0.2
29 | ILHN | ≤ 0.2
30 | CHMY | ≤ 0.2
31 | SNEL | ≤ 0.2
32 | YQFG | ≤ 0.2
33 | YIRF | ≤ 0.2
34 | KYAS | ≤ 0.2
35 | CHVW | ≤ 0.2
36 | DKTT | ≤ 0.2
37 | LADW | ≤ 0.2
38 | AIVY | ≤ 0.2
39 | TGLP | ≤ 0.2
40 | MYMS | ≤ 0.2
41 | IKAT | ≤ 0.2
42 | GVRT | ≤ 0.2
43 | MSNI | ≤ 0.2
44 | INHC | ≤ 0.2
45 | SMRL | ≤ 0.2
46 | YTNS | ≤ 0.2
47 | PTMS | ≤ 0.2
48 | RKDD | ≤ 0.2
49 | HSES | ≤ 0.2
50 | DPHM | ≤ 0.2

Row | Variant | one-hybrid fitness for binding parS DNA
51 | HALC | ≤ 0.2
52 | MFAS | ≤ 0.2
53 | RYRS | 0.824
54 | PAFS | ≤ 0.2
55 | KHER | ≤ 0.2
56 | LNDF | ≤ 0.2
57 | STTF | ≤ 0.2
58 | LTEG | ≤ 0.2
59 | LWGY | ≤ 0.2
60 | KMSC | ≤ 0.2
61 | SPLV | ≤ 0.2
62 | TLRM | ≤ 0.2
63 | RLEN | 0.4
64 | DSSC | ≤ 0.2
65 | WLYT | ≤ 0.2
66 | EWEG | ≤ 0.2
67 | PATV | ≤ 0.2
68 | MGKT | ≤ 0.2
69 | ECRT | ≤ 0.2
70 | PIHC | ≤ 0.2
71 | REAC | ≤ 0.2
72 | PQQL | ≤ 0.2
73 | PWNV | ≤ 0.2
74 | EHPG | ≤ 0.2
75 | FAQS | ≤ 0.2

Row | Variant | one-hybrid fitness for binding parS DNA
76 | QVCH | ≤ 0.2
77 | QACI | ≤ 0.2
78 | SNPT | ≤ 0.2
79 | FIGG | ≤ 0.2
80 | SPNR | ≤ 0.2
81 | RENA | ≤ 0.2
82 | TEGT | ≤ 0.2
83 | AEWR | ≤ 0.2
84 | SSIV | ≤ 0.2
85 | RQMK | ≤ 0.2
86 | YKYC | ≤ 0.2
87 | SNMW | ≤ 0.2
88 | PVQE | ≤ 0.2
89 | RKSW | ≤ 0.2
90 | PLIP | ≤ 0.2
91 | RPGY | ≤ 0.2
92 | RWCI | ≤ 0.2
93 | CCRS | ≤ 0.2
94 | RPTP | ≤ 0.2
95 | YKMG | ≤ 0.2
96 | HCSR | ≤ 0.2
97 | PIRS | ≤ 0.2
98 | MSFS | ≤ 0.2
99 | ECVG | ≤ 0.2
100 | GEHG | ≤ 0.2

Row | Variant | one-hybrid fitness for binding parS DNA
101 | LEHE | ≤ 0.2
102 | WAAR | ≤ 0.2
103 | MGRA | ≤ 0.2
104 | PHGR | ≤ 0.2
105 | AAES | ≤ 0.2
106 | PREM | ≤ 0.2
107 | ARHM | ≤ 0.2
108 | LYHT | ≤ 0.2
109 | KMWT | ≤ 0.2
110 | TPQT | ≤ 0.2
111 | LYWW | ≤ 0.2
112 | EDAT | ≤ 0.2
113 | TACW | ≤ 0.2
114 | EDYM | ≤ 0.2
115 | AGFR | ≤ 0.2
116 | TSME | ≤ 0.2
117 | HSDG | ≤ 0.2
118 | ISMH | ≤ 0.2
119 | VPVC | ≤ 0.2
120 | PITW | ≤ 0.2
121 | QDAE | ≤ 0.2
122 | IRDR | ≤ 0.2
123 | GELY | ≤ 0.2
124 | RSAN | 0.426
125 | CLAV | ≤ 0.2

Row | Variant | one-hybrid fitness for binding parS DNA
126 | WDCT | ≤ 0.2
127 | RWVV | ≤ 0.2
128 | SDDH | ≤ 0.2
129 | QFSR | ≤ 0.2
130 | LNNV | ≤ 0.2
131 | QSKF | ≤ 0.2
132 | NPSF | ≤ 0.2
133 | CTSM | ≤ 0.2
134 | RMIR | ≤ 0.2
135 | LELR | ≤ 0.2
136 | QTPG | ≤ 0.2
137 | NRWG | ≤ 0.2
138 | ILAL | ≤ 0.2
139 | SEPL | ≤ 0.2
140 | YVQV | ≤ 0.2
141 | QDLL | ≤ 0.2
142 | VYGS | ≤ 0.2
143 | KMWY | ≤ 0.2
144 | NAYL | ≤ 0.2
145 | FNRW | ≤ 0.2
146 | RPTD | ≤ 0.2
147 | QKGR | ≤ 0.2
148 | TQVE | ≤ 0.2
149 | WGAG | ≤ 0.2
150 | AAAA | ≤ 0.2

Row | Variant | one-hybrid fitness for binding parS DNA
151 | ARYR | ≤ 0.2
152 | TFDR | ≤ 0.2
153 | WKWG | ≤ 0.2
154 | ASPT | ≤ 0.2
155 | AQRS | ≤ 0.2
156 | CLTF | ≤ 0.2
157 | PNFW | ≤ 0.2
158 | MFHR | ≤ 0.2
159 | RIKD | ≤ 0.2
160 | QYCN | ≤ 0.2
161 | AADV | ≤ 0.2
162 | PWSY | ≤ 0.2
163 | HHMC | ≤ 0.2
164 | GDLS | ≤ 0.2
165 | QKYL | ≤ 0.2
166 | AQFR | ≤ 0.2
167 | LRVM | ≤ 0.2
168 | GDTY | ≤ 0.2
169 | QMCC | ≤ 0.2
170 | ITSQ | ≤ 0.2
171 | NINW | ≤ 0.2
172 | GSWA | ≤ 0.2
173 | YHHM | ≤ 0.2
174 | PIRE | ≤ 0.2
175 | CRVI | ≤ 0.2

Row | Variant | one-hybrid fitness for binding parS DNA
176 | WTPC | ≤ 0.2
177 | TGTP | ≤ 0.2
178 | LKVG | ≤ 0.2
179 | ATDN | ≤ 0.2
180 | QENY | ≤ 0.2
181 | HMAM | ≤ 0.2
182 | TLQN | ≤ 0.2
183 | RIDR | ≤ 0.2
184 | DLFT | ≤ 0.2
185 | SPKM | ≤ 0.2
186 | TTMG | ≤ 0.2
187 | ILKH | ≤ 0.2
188 | NSFR | ≤ 0.2
189 | PLEG | ≤ 0.2
190 | GPIV | ≤ 0.2
191 | AGPI | ≤ 0.2
192 | VVPA | ≤ 0.2
193 | PMNG | ≤ 0.2
194 | RWWC | 0.521
195 | DLPA | ≤ 0.2
